# The campaign covered roughly 360,000 compounds. About 17,000 (4.7%) were called active. Inconclusive means that the source gave no clear call. Such entries were picked first, then a sample of the others. No stated cut-off is given here; in the data, active means activity change below about -50%; inconclusive means mostly about -30% to -49%; inactive means weaker than that.
# Assay: qHTS for Inhibitors of Inflammasome Signaling: IL-1-beta AlphaLISA Primary Screen
# Details: THP-1 LPS/ATP IL-1B secretion, 16 h; at 57.5 µM, active compounds read low
# In short: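 Secreted IL-1B measured by AlphaLISA bead assay after 16 h compound exposure of THP-1 cells; compounds (final up to 57.5 uM) added 1 h before LPS (250 ng/mL) and ATP (1.25 mM) stimulation; lower signal means less secretion.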
# On the % scale 0 is the no-effect control and ±100 the full control effect.
row,Structure (SMILES),activity change
1,CN(C)CCNC(=O)c1onc(CSc2ccc(F)c(F)c2)c1C(=O)NCCN(C)C,inconclusive: -35.3%
2,Nc1nc(CN2CCN(c3ccccc3F)CC2)nc(N2CCCc3ccccc32)n1,inconclusive: -37.2%
3,Cc1cc(C)nc(-n2nc(C)c(Br)c2Nc2ccc(Br)cc2)n1,inconclusive: -39.7%
4,CC(C)CC1C(=O)N(Cc2cn(CCC3OCCCO3)nn2)CCS(=O)(=O)N1Cc1ccc(-c2ccc(Cl)c(Cl)c2)cc1 (stereo not drawn),inconclusive: -46.4%
5,COc1cc(-c2nc3cnccn3c2Nc2ccc(C(C)C)cc2)ccc1O,active: -81.2%
6,O=[N+]([O-])c1cccc(C2NCC(c3ccccc3Cl)c3c2[nH]c2ccccc32)c1 (stereo not drawn),active: -63.1%
7,CCOc1ncccc1C(=O)Nc1nc(SC)ns1,inactive: 39.1%
8,Cc1ccc(Oc2ccc(Cl)cc2NC(=O)c2ccc(F)cc2F)cc1,inactive: 18.9%
9,Cc1ccc2nc(Cc3ccc(N)cc3)[nH]c2c1,inactive: -1.86%
10,COc1ccc(-n2c3c(cc(C(=O)Nc4cccc(C)n4)c2=O)C(=O)CC(C)(C)C3)cc1,inactive: 21.3%
11,CCOC(=O)C1=CC[C@@H](c2ccccc2C(F)(F)F)N(S(=O)(=O)c2ccc(C)cc2)[C@H]1c1ccc(C#N)cc1,inactive: -8.21%
12,CCCCC(C(=O)NC1CCCC1)N(C(=O)c1snc(C(N)=O)c1N)c1ccc(OCC)cc1 (stereo not drawn),inconclusive: -34.4%
13,CCOc1ccc(OCC)c(NC(=O)CSc2nc3c(c(=O)n(C)c(=O)n3C)n2C(C)C)c1,active: -81.3%
14,Cc1cc(Br)ccc1OCCNCc1ccccc1,inconclusive: -38.7%
15,Cc1cc(O)c(C)c(O)c1/C=N/NC(=O)c1cccnc1,inactive: 151%
16,CCN1C(=O)[C@H]2[C@@H](c3ccc(C)cc3)N[C@]3(CCCN(Cc4ccc(F)cc4)C3=O)[C@H]2C1=O,inactive: 2.5%
17,Cc1cc(-n2c(SCc3ccccc3F)nc3n[nH]c(C)c3c2=N)ccc1Cl,inactive: -0.476%
18,O=C(CNC(=O)c1ccccc1)N/N=C/c1ccc([N+](=O)[O-])s1,inconclusive: -37.1%
19,O=C(CN1CCCC1)Nc1ccc(Oc2ccc(NC(=O)CN3CCCC3)cc2)cc1,inconclusive: -47%
20,CN1CCN(c2cc(N3CCN(C(=O)c4ccco4)CC3)c3c4c(onc24)-c2ccccc2C3=O)CC1,inconclusive: -32.3%
21,CCn1ccnc1CN(C)Cc1cn(-c2cc(C)ccc2C)nc1-c1ccccc1,inconclusive: -42.6%
22,CN(C)c1ccc(NC(=O)Nc2ccc3c(c2)c(=O)n(C)n3Cc2ccc(Cl)cc2)cc1,inconclusive: -39%
23,CCc1ccccc1NC(=O)/C(C#N)=C\c1ccc(Sc2ccccc2)o1,inconclusive: -39.9%
24,Cc1cccc(N=C2Sc3nc4c(C)c(C)ccc4cc3CN2CCN2CCOCC2)c1,active: -58.7%
25,[O-]/C(=C(\C(=S)Nc1ccc(SC(F)F)cc1)[n+]1cccc(CO)c1)c1ccc(Cl)s1,inconclusive: -44%
26,CC(C)(C)OC(=O)C[C@H]1C/C=C\C[C@@H](CC(=O)N(CCO)Cc2ccccc2)C(=O)N[C@@H](c2ccccc2)COC1=O,inactive: -3.69%
27,CC(=O)Nc1ccc(C2=NN(C)C(=NCc3ccccc3)SC2)cc1,inconclusive: -34.5%

row,Structure (SMILES),activity change
1,O=C(NCCc1ccc(Cl)cc1)c1ccc(CS(=O)Cc2ccc(Cl)cc2)o1 (stereo not drawn),inconclusive: -39.9%
2,CCCCCCCCN1C(=O)[C@H](CC(=O)N2CCCC2)C[C@@]2(C(=O)OCC)CCCC=C12,inconclusive: -37.8%
3,Cc1cccc(C(=O)NNC(=O)c2ccc(Cl)cc2)c1O,inactive: 14.1%
4,CC(C)C(=O)Nc1ccc2c(c1)C(=O)NC2=O,inactive: 6.54%
5,Cc1nc2cc(C(=O)NCc3ccc4c(c3)OCO4)ccc2n1-c1ccc(Br)cc1,inconclusive: -37.8%
6,Cc1ccc(Cl)cc1N1CCN(C(=O)C(C)n2ncn3cccc3c2=O)CC1 (stereo not drawn),inactive: -23.2%
7,CCC/C=C/c1ccc(CN2C(C(C)C)C(=O)N(Cc3cn(Cc4ccco4)nn3)CCS2(=O)=O)cc1 (stereo not drawn),inconclusive: -35.7%
8,O=C(CSc1nnc2sc3ccccc3n12)N1CCN(c2ccccc2)CC1,inconclusive: -36.8%
9,COc1ccc(C(=O)N[C@H](C(=O)NCCCSc2ccccc2)C(C)C)cc1,inactive: -17.6%
10,CCn1c2c(c(=N)c3c1CCC3)CCCC2,inactive: 39.9%
11,O=C1C=C(C2OC(CO)C(O)C2O)C(=O)N1 (stereo not drawn),inconclusive: -31.1%
12,COCCNc1oc(-c2ccc(C)cc2)nc1C#N,inconclusive: -38.6%
13,O=C(CNC(=O)c1ccccc1)N/N=C/c1cc(Br)ccc1O,inactive: 60.5%
14,CC1CCc2c(sc(NC(=O)C3CCCO3)c2C#N)C1 (stereo not drawn),inconclusive: -40.6%
15,Nc1cc(S(=O)(=O)N2CCCCC2)ccc1N1CCCCC1,inactive: -6.94%
16,Cc1nn(Cc2ccccc2)c(C)c1NC(=O)c1cc2nc(-c3ccco3)cc(C(F)(F)F)n2n1,inconclusive: -34.6%
17,CCc1ccc(Nc2nc(N3CCOCC3)nc(N3CCOCC3)n2)cc1,inconclusive: -43.8%
18,COc1cccc(OC)c1C(=O)N1CCN(c2ccccn2)CC1,inconclusive: -41.9%
19,CC(C)CNc1ncnc2c1cnn2Cc1ccccc1Cl,inconclusive: -39.9%
20,CCCCN(C)CCCNC(=O)Cn1c(=O)sc2ccccc21,inconclusive: -37.3%
21,O=C(Nc1ccc(F)cc1)C1CC(=O)n2cnnc2N1 (stereo not drawn),inactive: 13.6%
22,CC1(C)CC(=O)C=C(Nc2ccc(O)c(C(=O)O)c2)C1,inconclusive: -32.2%
23,O=C(N/N=C\c1cccnc1)c1cc(-c2ccccc2)nc2c(Cl)cccc12,inconclusive: -34%
24,C/C=C/c1ccc(OCC(=O)Nc2cc(S(=O)(=O)N3CCOCC3)ccc2N2CCCC2)c(OC)c1,inconclusive: -46%
25,Cc1cc(C(C)(C)C)cc(C)c1S(=O)(=O)N1CC(=O)Nc2ccccc21,active: -62.5%
26,O=C(O)CCNc1cc(N2CCN(C(=O)c3ccco3)CC2)c2noc3c2c1C(=O)c1ccccc1-3,active: -71.2%

# — PubChem BioAssay AID743279 (National Center for Advancing Translational Sciences (NCATS), 2014)
